Experimental data: the supplement of paper PMC4166925
± gives the standard deviation of the averaged measurements. Over roughly 33,000 sequences, “E-score (dimensionless, -0.5 to 0.5)” has its median near -0.046; the highest 2% begin near 0.36. The list shows a part of the results.

System: T1, SpTbr T-box DNA-binding domain (GST fusion)
T1 sequence: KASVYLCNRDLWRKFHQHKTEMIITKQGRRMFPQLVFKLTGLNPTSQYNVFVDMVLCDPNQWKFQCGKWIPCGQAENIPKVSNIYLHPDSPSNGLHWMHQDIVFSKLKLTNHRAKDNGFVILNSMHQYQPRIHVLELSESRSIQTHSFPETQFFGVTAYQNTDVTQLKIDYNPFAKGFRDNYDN
Test: PBM E-score of 8-mer (E-score (dimensionless, -0.5 to 0.5)); Tbr is Tbrain of the sea star Patiria miniata (Pm) or the sea urchin Strongylocentrotus purpuratus (Sp); higher = stronger binding preference; most listed sequences are background and not binding sites
Settings: the construct has about 5 more residues each side
Procedure, shortened: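 GST-fused Tbr T-box DNA-binding domains (the whole T-box plus about five flanking residues) were expressed in BL21 E. coli at 20 °C and purified by glutathione affinity chromatography. Universal Agilent oligonucleotide arrays were made double-stranded by primer extension, incubated with 200 nM protein in PBS (pH 7.5), then scanned and quantified. Every ungapped 8-mer was scored from probe intensities. The Universal PBM Analysis Suite gave each word an enrichment E-score, averaged over duplicate arrays.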

Row | Sequence | PBM E-score of 8-mer
1 | AGATCTTC | 0.0938 ± 0.043
2 | GATAGAAC | -0.107 ± 0.018
3 | ATTGCTGA | -0.0995 ± 0.059
4 | ATCCGGAC | -0.113 ± 0.026
5 | CTGTAATA | 0.061 ± 0.038
6 | ATAAAAAT | -0.123 ± 0.069
7 | CCCGGGGA | -0.179 ± 0.036
8 | CTCGAGCC | -0.154 ± 0.069
9 | AAGAACGC | -0.181 ± 0.096
10 | ATTGGTTG | -0.192 ± 0.031
11 | GAATGTAC | 0.0332 ± 0.024
12 | CCCCATTA | -0.157 ± 0.038
13 | ATTTACAC | 0.356 ± 0.0092
14 | CCGGCCAG | -0.0406 ± 0.046
15 | ATACTAGC | 0.0611 ± 0.12
16 | GATGACTA | -0.175 ± 0.027
17 | CAATGTAC | -0.0989 ± 0.0078
18 | GGATCAAC | -0.00787 ± 0.008
19 | GATTTCCC | -0.123 ± 0.072
20 | CGGCTAAC | 0.0839 ± 0.024
21 | ATTAGGAA | -0.173 ± 0.0093
22 | AACGTTAA | -0.0537 ± 0.032

Row | Sequence | PBM E-score of 8-mer
23 | AGCGGACT | -0.233 ± 0.029
24 | TAGAGATA | -0.0507 ± 0.0039
25 | CCGACGTC | -0.0738 ± 0.039
26 | CTATTCTC | -0.0236 ± 0.035
27 | CTGGGCAC | -0.0696 ± 0.088
28 | CATACTAA | -0.113 ± 0.018
29 | ACTGATAA | -0.169 ± 0.073
30 | ACTCCTCT | 0.0856 ± 0.0041
31 | CGGCTTAC | -0.0541 ± 0.015
32 | AAGGAAAT | -0.0532 ± 0.0098
33 | ATCTGTCC | -0.0512 ± 0.0045
34 | CGCAGCAG | -0.0698 ± 0.043
35 | GTGCCGAA | 0.267 ± 0.0096
36 | AGGCAGGA | -0.1 ± 0.01
37 | AAGAACAG | -0.146 ± 0.019
38 | AGTTGTAC | -0.102 ± 0.014
39 | CGAGAGTC | -0.0698 ± 0.061
40 | CAAAGAAG | -0.145 ± 0.064
41 | CCATGGAG | -0.231 ± 0.015
42 | GACAGCAC | 0.0659 ± 0.049
43 | AGCGGGTC | 0.0862 ± 0.036
44 | GACAGAAA | -0.144 ± 0.053

Row | Sequence | PBM E-score of 8-mer
45 | AGGAGGGG | 0.0237 ± 0.0028
46 | GCACATTA | 0.0802 ± 0.043
47 | AACTCGCA | 0.251 ± 0.033
48 | AAATTGAA | -0.155 ± 0.028
49 | CTCACGAA | 0.0622 ± 0.021
50 | CCTAGCCA | -0.144 ± 0.018
51 | ATATGGGA | -0.219 ± 0.059
52 | AAGAGAAC | -0.148 ± 0.085
53 | AGCGAATC | -0.151 ± 0.019
54 | GATACTCC | -0.0707 ± 0.0073
55 | GCCTAGAC | -0.0826 ± 0.058
56 | CAGTATAA | -0.11 ± 0.025
57 | AAACAGTC | 0.0102 ± 0.034
58 | TCGTTTCA | 0.149 ± 0.09
59 | CGAGTCGA | 0.0653 ± 0.018
60 | ACATTGCC | 0.134 ± 0.024
61 | CGGGAGAG | -0.0707 ± 0.1
62 | GATACCAA | 0.00881 ± 0.084
63 | CTTGACGA | 0.131 ± 0.038
64 | CTCGCAAC | 0.3 ± 0.043
65 | GCCTACGC | -0.00188 ± 0.037
66 | AATAATAG | -0.124 ± 0.0046

Row | Sequence | PBM E-score of 8-mer
67 | CATCGCGC | 0.259 ± 0.032
68 | AAAGTATG | -0.229 ± 0.12
69 | ACGTGGTA | 0.138 ± 0.0042
70 | CAAAAAAG | -0.164 ± 0.076
71 | ATTAATCC | -0.3717 ± 0.0021
72 | CCCACGCA | -0.102 ± 0.046
73 | TCTGCTAA | 0.0482 ± 0.015
74 | ACGTGGTC | -0.00463 ± 0.035
75 | AGTTAATG | -0.0117 ± 0.043
76 | ACTGGATA | -0.212 ± 0.0083
77 | CTTGCTAC | -0.104 ± 0.024
78 | ACACTTAA | 0.336 ± 0.027
79 | AACCCCGT | -0.0114 ± 0.02
80 | ATGTAGGG | -0.355 ± 0.013
81 | ACCGCACT | 0.0559 ± 0.036
82 | CCTATTTA | -0.143 ± 0.081
83 | AGGAACCC | -0.3 ± 0.045
84 | AATAACAG | 0.12 ± 0.017
85 | CAACAGGA | 0.04179 ± 0.00038
86 | ATACCCGC | 0.0508 ± 0.029
